Binding signal data for 31 molecules are collected here from paper PMC9911399, “Two distinct binding modes provide the RNA-binding protein RbFox with extraordinary sequence specificity”.

B1: CGGGCGG (DNA:RNA)
RNA: GGGAGACCGGAAUUCAGAUUGUCCCGGGCGGUUAAAUCCCGUCGUAGCCACCA
DNA 1: CAATCTGAATTCCGGTCTCCC
DNA 2: TGGTGGCTACGACGGGATT
B2: GGUAGCG (DNA:RNA)
RNA: B1 RNA with C25G, G27U, G28A, C29G, G30C
DNA 1: CAATCTGAATTCCGGTCTCCC
DNA 2: TGGTGGCTACGACGGGATT
B3: GAAGGAC (DNA:RNA)
RNA: B1 RNA with C25G, G26A, G27A, C29G, G30A, G31C
DNA 1: CAATCTGAATTCCGGTCTCCC
DNA 2: TGGTGGCTACGACGGGATT
B4: CCCGACC (DNA:RNA)
RNA: B1 RNA with G26C, G27C, C29A, G30C, G31C
DNA 1: CAATCTGAATTCCGGTCTCCC
DNA 2: TGGTGGCTACGACGGGATT
B5: CCUACCC (DNA:RNA)
RNA: B1 RNA with G26C, G27U, G28A, G30C, G31C
DNA 1: CAATCTGAATTCCGGTCTCCC
DNA 2: TGGTGGCTACGACGGGATT
B6: CUCAGGA (DNA:RNA)
RNA: B1 RNA with G26U, G27C, G28A, C29G, G31A
DNA 1: CAATCTGAATTCCGGTCTCCC
DNA 2: TGGTGGCTACGACGGGATT
B7: CAUCUCA (DNA:RNA)
RNA: B1 RNA with G26A, G27U, G28C, C29U, G30C, G31A
DNA 1: CAATCTGAATTCCGGTCTCCC
DNA 2: TGGTGGCTACGACGGGATT
B8: UAUAGUC (DNA:RNA)
RNA: GGGAGACCGGAAUUCAGAUUGUCCUAUAGUCUUAAAUCCCGUCGUAGCCACCA
DNA 1: CAATCTGAATTCCGGTCTCCC
DNA 2: TGGTGGCTACGACGGGATT
B9: GCUUUCU (DNA:RNA)
RNA: B8 RNA with U25G, A26C, A28U, G29U, U30C, C31U
DNA 1: CAATCTGAATTCCGGTCTCCC
DNA 2: TGGTGGCTACGACGGGATT
B10: UACCUCA (DNA:RNA)
RNA: B8 RNA with U27C, A28C, G29U, U30C, C31A
DNA 1: CAATCTGAATTCCGGTCTCCC
DNA 2: TGGTGGCTACGACGGGATT
B11: UCAUAGU (DNA:RNA)
RNA: B1 RNA with C25U, G26C, G27A, G28U, C29A, G31U
DNA 1: CAATCTGAATTCCGGTCTCCC
DNA 2: TGGTGGCTACGACGGGATT
B12: GCAGCAU (DNA:RNA)
RNA: B1 RNA with C25G, G26C, G27A, G30A, G31U
DNA 1: CAATCTGAATTCCGGTCTCCC
DNA 2: TGGTGGCTACGACGGGATT
B13: CGUCACA (DNA:RNA)
RNA: B1 RNA with G27U, G28C, C29A, G30C, G31A
DNA 1: CAATCTGAATTCCGGTCTCCC
DNA 2: TGGTGGCTACGACGGGATT
B14: CCGUUAC (DNA:RNA)
RNA: B1 RNA with G26C, G28U, C29U, G30A, G31C
DNA 1: CAATCTGAATTCCGGTCTCCC
DNA 2: TGGTGGCTACGACGGGATT
B15: CACCUGC (DNA:RNA)
RNA: B1 RNA with G26A, G27C, G28C, C29U, G31C
DNA 1: CAATCTGAATTCCGGTCTCCC
DNA 2: TGGTGGCTACGACGGGATT
B16: UUCCUGC (DNA:RNA)
RNA: B8 RNA with A26U, U27C, A28C, G29U, U30G
DNA 1: CAATCTGAATTCCGGTCTCCC
DNA 2: TGGTGGCTACGACGGGATT
B17: AAAGUAU (DNA:RNA)
RNA: B1 RNA with C25A, G26A, G27A, C29U, G30A, G31U
DNA 1: CAATCTGAATTCCGGTCTCCC
DNA 2: TGGTGGCTACGACGGGATT
B18: UAGACUC (DNA:RNA)
RNA: B8 RNA with U27G, G29C
DNA 1: CAATCTGAATTCCGGTCTCCC
DNA 2: TGGTGGCTACGACGGGATT
B19: CUAGCCA (DNA:RNA)
RNA: B1 RNA with G26U, G27A, G30C, G31A
DNA 1: CAATCTGAATTCCGGTCTCCC
DNA 2: TGGTGGCTACGACGGGATT
B20: GAAGUAU (DNA:RNA)
RNA: B1 RNA with C25G, G26A, G27A, C29U, G30A, G31U
DNA 1: CAATCTGAATTCCGGTCTCCC
DNA 2: TGGTGGCTACGACGGGATT
B21: CCUGUAC (DNA:RNA)
RNA: B1 RNA with G26C, G27U, C29U, G30A, G31C
DNA 1: CAATCTGAATTCCGGTCTCCC
DNA 2: TGGTGGCTACGACGGGATT
B22: GACCGCA (DNA:RNA)
RNA: B8 RNA with U25G, U27C, A28C, U30C, C31A
DNA 1: CAATCTGAATTCCGGTCTCCC
DNA 2: TGGTGGCTACGACGGGATT
B23: AUUUGCU (DNA:RNA)
RNA: B8 RNA with U25A, A26U, A28U, U30C, C31U
DNA 1: CAATCTGAATTCCGGTCTCCC
DNA 2: TGGTGGCTACGACGGGATT
B24: GCAGUGC (DNA:RNA)
RNA: B1 RNA with C25G, G26C, G27A, C29U, G31C
DNA 1: CAATCTGAATTCCGGTCTCCC
DNA 2: TGGTGGCTACGACGGGATT
B25: UUGAGGG (DNA:RNA)
RNA: B1 RNA with C25U, G26U, G28A, C29G
DNA 1: CAATCTGAATTCCGGTCTCCC
DNA 2: TGGTGGCTACGACGGGATT
B26: UGUCACC (DNA:RNA)
RNA: B8 RNA with A26G, A28C, G29A, U30C
DNA 1: CAATCTGAATTCCGGTCTCCC
DNA 2: TGGTGGCTACGACGGGATT
B27: AAUGGGC (DNA:RNA)
RNA: B8 RNA with U25A, A28G, U30G
DNA 1: CAATCTGAATTCCGGTCTCCC
DNA 2: TGGTGGCTACGACGGGATT
B28: UUAUAUU (DNA:RNA)
RNA: B8 RNA with A26U, U27A, A28U, G29A, C31U
DNA 1: CAATCTGAATTCCGGTCTCCC
DNA 2: TGGTGGCTACGACGGGATT
B29: CUAGACG (DNA:RNA)
RNA: B1 RNA with G26U, G27A, C29A, G30C
DNA 1: CAATCTGAATTCCGGTCTCCC
DNA 2: TGGTGGCTACGACGGGATT
B30: CGAUCGU (DNA:RNA)
RNA: B1 RNA with G27A, G28U, G31U
DNA 1: CAATCTGAATTCCGGTCTCCC
DNA 2: TGGTGGCTACGACGGGATT
B31: UGGUAGC (DNA:RNA)
RNA: B1 RNA with C25U, G28U, C29A, G31C
DNA 1: CAATCTGAATTCCGGTCTCCC
DNA 2: TGGTGGCTACGACGGGATT

Substitutions are numbered along the chain they refer to; changes in the protein carry UniProt numbers. The list shows a part of the results.

In the assay the target is T1, RBFOX1 RRM RbFoxmut (Fox-RRM*) (Homo sapiens, UniProt Q9NWB1 109-208, R118D;E147R;N151S;E152T).
T1 sequence: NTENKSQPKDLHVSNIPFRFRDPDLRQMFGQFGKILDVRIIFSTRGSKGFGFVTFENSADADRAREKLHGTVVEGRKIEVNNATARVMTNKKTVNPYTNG
The assay can be described thus: EMSA; HiTS-Eq, 1 nM pool, 10 min; buffer printed only for the single-RNA assays: 10 mM Tris pH 7.5, 150 mM NaCl, 3.4 mM EDTA, 0.001% NP-40, 30 C. Particulars: tags: His6 N-terminal (pET28a); label: 5' 32P. In outline: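 Purified wild-type or mutant RbFox RRM at increasing concentrations was equilibrated with 1 nM of 5′-radiolabelled RNA carrying 7 randomized nucleotides for 10 min in 50 µL. Unbound RNA was separated by 8% native PAGE and sequenced. Relative association constants came from read-count changes of each RNA species compared with the control reaction, normalised to the cognate motif.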
For orientation: Mobility shift assays separate free from complexed probe on a gel.
With B1, the binding signal was 0.105 KA relative to UGCAUGU.

For the molecule B2, the binding signal was 0.125 KA relative to UGCAUGU.

For the molecule B3, the binding signal was 0.0308 KA relative to UGCAUGU.

Take B4: the binding signal was 0.0908 KA relative to UGCAUGU.

As for B5, the binding signal is 0.0698 KA relative to UGCAUGU.

In the case of B6, the binding signal is 0.0766 KA relative to UGCAUGU.

Regarding B7, the binding signal is 0.11 KA relative to UGCAUGU.

Turning to B8, the binding signal was 0.107 KA relative to UGCAUGU.

Take B9: the binding signal is 0.0425 KA relative to UGCAUGU.

In the case of B10, the binding signal was 0.138 KA relative to UGCAUGU.

As to B11, the binding signal was 0.108 KA relative to UGCAUGU.

As to B12, the binding signal is 0.124 KA relative to UGCAUGU.

B13: the binding signal is 0.0909 KA relative to UGCAUGU.

As for B14, the binding signal is 0.0966 KA relative to UGCAUGU.

B15: the binding signal is 0.123 KA relative to UGCAUGU.

As for B16, the binding signal was 0.104 KA relative to UGCAUGU.

Turning to B17, the binding signal was 0.154 KA relative to UGCAUGU.

For B18, the binding signal was 0.0412 KA relative to UGCAUGU.

For B19, the binding signal is 0.091 KA relative to UGCAUGU.

On to B20, for which the binding signal is 0.106 KA relative to UGCAUGU.

In the case of B21, the binding signal is 0.123 KA relative to UGCAUGU.

Turning to B22, the binding signal was 0.138 KA relative to UGCAUGU.

Consider B23, for which the binding signal is 0.126 KA relative to UGCAUGU.

With B24, the binding signal is 0.0818 KA relative to UGCAUGU.

On to B25, for which the binding signal is 0.106 KA relative to UGCAUGU.

Regarding B26, the binding signal is 0.0681 KA relative to UGCAUGU.

In the case of B27, the binding signal is 0.0842 KA relative to UGCAUGU.

On to B28, for which the binding signal is 0.0963 KA relative to UGCAUGU.

Take B29: the binding signal was 0.0782 KA relative to UGCAUGU.

Turning to B30, the binding signal is 0.118 KA relative to UGCAUGU.

With B31, the binding signal was 0.102 KA relative to UGCAUGU.
